Measurements taken from paper PMC9911399, “Two distinct binding modes provide the RNA-binding protein RbFox with extraordinary sequence specificity”.
Positions count from the first letter of the chain named. Some of the results follow.

T1: RBFOX1 RRM RbFoxmut (Fox-RRM*) (Homo sapiens, UniProt Q9NWB1 109-208, R118D;E147R;N151S;E152T)
T1 sequence: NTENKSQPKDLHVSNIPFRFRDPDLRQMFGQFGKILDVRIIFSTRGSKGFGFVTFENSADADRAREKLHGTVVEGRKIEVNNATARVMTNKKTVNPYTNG

B1: CGGGGGG (DNA:RNA)
RNA: GGGAGACCGGAAUUCAGAUUGUCCCGGGGGGUUAAAUCCCGUCGUAGCCACCA
DNA 1: CAATCTGAATTCCGGTCTCCC
DNA 2: TGGTGGCTACGACGGGATT
B2: AUAACCG (DNA:RNA)
RNA: B1 RNA with C25A, G26U, G27A, G28A, G29C, G30C
DNA 1: CAATCTGAATTCCGGTCTCCC
DNA 2: TGGTGGCTACGACGGGATT
B3: AUUUAAU (DNA:RNA)
RNA: GGGAGACCGGAAUUCAGAUUGUCCAUUUAAUUUAAAUCCCGUCGUAGCCACCA
DNA 1: CAATCTGAATTCCGGTCTCCC
DNA 2: TGGTGGCTACGACGGGATT
B4: CAUCUAC (DNA:RNA)
RNA: B3 RNA with A25C, U26A, U28C, A29U, U31C
DNA 1: CAATCTGAATTCCGGTCTCCC
DNA 2: TGGTGGCTACGACGGGATT
B5: GCGGAAC (DNA:RNA)
RNA: B3 RNA with A25G, U26C, U27G, U28G, U31C
DNA 1: CAATCTGAATTCCGGTCTCCC
DNA 2: TGGTGGCTACGACGGGATT
B6: UAGAGCG (DNA:RNA)
RNA: B1 RNA with C25U, G26A, G28A, G30C
DNA 1: CAATCTGAATTCCGGTCTCCC
DNA 2: TGGTGGCTACGACGGGATT
B7: AUGGUCU (DNA:RNA)
RNA: B3 RNA with U27G, U28G, A29U, A30C
DNA 1: CAATCTGAATTCCGGTCTCCC
DNA 2: TGGTGGCTACGACGGGATT
B8: AACUUGA (DNA:RNA)
RNA: B3 RNA with U26A, U27C, A29U, A30G, U31A
DNA 1: CAATCTGAATTCCGGTCTCCC
DNA 2: TGGTGGCTACGACGGGATT
B9: UUAGACG (DNA:RNA)
RNA: B3 RNA with A25U, U27A, U28G, A30C, U31G
DNA 1: CAATCTGAATTCCGGTCTCCC
DNA 2: TGGTGGCTACGACGGGATT
B10: CAACUAC (DNA:RNA)
RNA: B3 RNA with A25C, U26A, U27A, U28C, A29U, U31C
DNA 1: CAATCTGAATTCCGGTCTCCC
DNA 2: TGGTGGCTACGACGGGATT
B11: CGGUAUU (DNA:RNA)
RNA: B3 RNA with A25C, U26G, U27G, A30U
DNA 1: CAATCTGAATTCCGGTCTCCC
DNA 2: TGGTGGCTACGACGGGATT
B12: GCGCGCC (DNA:RNA)
RNA: B1 RNA with C25G, G26C, G28C, G30C, G31C
DNA 1: CAATCTGAATTCCGGTCTCCC
DNA 2: TGGTGGCTACGACGGGATT
B13: CCGGUUC (DNA:RNA)
RNA: B1 RNA with G26C, G29U, G30U, G31C
DNA 1: CAATCTGAATTCCGGTCTCCC
DNA 2: TGGTGGCTACGACGGGATT
B14: GCCCCCG (DNA:RNA)
RNA: B1 RNA with C25G, G26C, G27C, G28C, G29C, G30C
DNA 1: CAATCTGAATTCCGGTCTCCC
DNA 2: TGGTGGCTACGACGGGATT
B15: GGCCUAU (DNA:RNA)
RNA: B3 RNA with A25G, U26G, U27C, U28C, A29U
DNA 1: CAATCTGAATTCCGGTCTCCC
DNA 2: TGGTGGCTACGACGGGATT
B16: UCAUUUA (DNA:RNA)
RNA: B3 RNA with A25U, U26C, U27A, A29U, A30U, U31A
DNA 1: CAATCTGAATTCCGGTCTCCC
DNA 2: TGGTGGCTACGACGGGATT
B17: AUAAACA (DNA:RNA)
RNA: B3 RNA with U27A, U28A, A30C, U31A
DNA 1: CAATCTGAATTCCGGTCTCCC
DNA 2: TGGTGGCTACGACGGGATT
B18: AAGCCUA (DNA:RNA)
RNA: B3 RNA with U26A, U27G, U28C, A29C, A30U, U31A
DNA 1: CAATCTGAATTCCGGTCTCCC
DNA 2: TGGTGGCTACGACGGGATT
B19: ACCAUUG (DNA:RNA)
RNA: B3 RNA with U26C, U27C, U28A, A29U, A30U, U31G
DNA 1: CAATCTGAATTCCGGTCTCCC
DNA 2: TGGTGGCTACGACGGGATT
B20: UAAGAUA (DNA:RNA)
RNA: B3 RNA with A25U, U26A, U27A, U28G, A30U, U31A
DNA 1: CAATCTGAATTCCGGTCTCCC
DNA 2: TGGTGGCTACGACGGGATT
B21: UACUAAG (DNA:RNA)
RNA: B3 RNA with A25U, U26A, U27C, U31G
DNA 1: CAATCTGAATTCCGGTCTCCC
DNA 2: TGGTGGCTACGACGGGATT
B22: GGCGUGA (DNA:RNA)
RNA: B1 RNA with C25G, G27C, G29U, G31A
DNA 1: CAATCTGAATTCCGGTCTCCC
DNA 2: TGGTGGCTACGACGGGATT
B23: UUUCCCA (DNA:RNA)
RNA: B3 RNA with A25U, U28C, A29C, A30C, U31A
DNA 1: CAATCTGAATTCCGGTCTCCC
DNA 2: TGGTGGCTACGACGGGATT
B24: GGUGCUU (DNA:RNA)
RNA: B3 RNA with A25G, U26G, U28G, A29C, A30U
DNA 1: CAATCTGAATTCCGGTCTCCC
DNA 2: TGGTGGCTACGACGGGATT
B25: ACUCCCU (DNA:RNA)
RNA: B3 RNA with U26C, U28C, A29C, A30C
DNA 1: CAATCTGAATTCCGGTCTCCC
DNA 2: TGGTGGCTACGACGGGATT
B26: GGUAUAU (DNA:RNA)
RNA: B3 RNA with A25G, U26G, U28A, A29U
DNA 1: CAATCTGAATTCCGGTCTCCC
DNA 2: TGGTGGCTACGACGGGATT
B27: UAGGAAU (DNA:RNA)
RNA: B3 RNA with A25U, U26A, U27G, U28G
DNA 1: CAATCTGAATTCCGGTCTCCC
DNA 2: TGGTGGCTACGACGGGATT
B28: ACUAAGC (DNA:RNA)
RNA: B3 RNA with U26C, U28A, A30G, U31C
DNA 1: CAATCTGAATTCCGGTCTCCC
DNA 2: TGGTGGCTACGACGGGATT
B29: GUCCGCC (DNA:RNA)
RNA: B3 RNA with A25G, U27C, U28C, A29G, A30C, U31C
DNA 1: CAATCTGAATTCCGGTCTCCC
DNA 2: TGGTGGCTACGACGGGATT
B30: GGUGGUA (DNA:RNA)
RNA: B1 RNA with C25G, G27U, G30U, G31A
DNA 1: CAATCTGAATTCCGGTCTCCC
DNA 2: TGGTGGCTACGACGGGATT
B31: AGGGCUG (DNA:RNA)
RNA: B1 RNA with C25A, G29C, G30U
DNA 1: CAATCTGAATTCCGGTCTCCC
DNA 2: TGGTGGCTACGACGGGATT

Target: T1, RBFOX1 RRM RbFoxmut (Fox-RRM*)
Experiment: EMSA; HiTS-Eq, 1 nM pool, 10 min; buffer printed only for the single-RNA assays: 10 mM Tris pH 7.5, 150 mM NaCl, 3.4 mM EDTA, 0.001% NP-40, 30 C
Conditions: tags: His6 N-terminal (pET28a); label: 5' 32P
Method in brief: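 Purified wild-type or mutant RbFox RRM at increasing concentrations was equilibrated with 1 nM of 5′-radiolabelled RNA carrying 7 randomized nucleotides for 10 min in 50 µL. Unbound RNA was separated by 8% native PAGE and sequenced. Relative association constants came from read-count changes of each RNA species compared with the control reaction, normalised to the cognate motif.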

Binder	binding signal
B1	0.0805 KA relative to UGCAUGU
B2	0.159 KA relative to UGCAUGU
B3	0.0921 KA relative to UGCAUGU
B4	0.105 KA relative to UGCAUGU
B5	0.0741 KA relative to UGCAUGU
B6	0.111 KA relative to UGCAUGU
B7	0.095 KA relative to UGCAUGU
B8	0.0966 KA relative to UGCAUGU
B9	0.0693 KA relative to UGCAUGU
B10	0.0756 KA relative to UGCAUGU
B11	0.11 KA relative to UGCAUGU
B12	0.137 KA relative to UGCAUGU
B13	0.0893 KA relative to UGCAUGU
B14	0.0676 KA relative to UGCAUGU
B15	0.0696 KA relative to UGCAUGU
B16	0.15 KA relative to UGCAUGU

Binder	binding signal
B17	0.124 KA relative to UGCAUGU
B18	0.0959 KA relative to UGCAUGU
B19	0.112 KA relative to UGCAUGU
B20	0.0797 KA relative to UGCAUGU
B21	0.0755 KA relative to UGCAUGU
B22	0.107 KA relative to UGCAUGU
B23	0.0641 KA relative to UGCAUGU
B24	0.0728 KA relative to UGCAUGU
B25	0.0521 KA relative to UGCAUGU
B26	0.101 KA relative to UGCAUGU
B27	0.11 KA relative to UGCAUGU
B28	0.109 KA relative to UGCAUGU
B29	0.105 KA relative to UGCAUGU
B30	0.149 KA relative to UGCAUGU
B31	0.275 KA relative to UGCAUGU
